Not every detail of the peptide structures is certain; ends, links or a residue may be inferred. Numbered stars: 1 amine (or outer) side, 2 acyl side, 3 side chain; on linkers, the order of the positions; unused ones are H or OH. Bridge positions count the residues as written; N and C are the ends. Square brackets hold non-standard residues; d marks the D form. Peptide text beside a SMILES is read from it. X14 = O=C([C@@]1(N[*:1])CCN(CC=[*:3])C1)[*:2]; S8 = C=CCCCCCC[C@](C)(N)C(=O)O
Tested on: TCF/LEF Luciferase reporter HEK293 cell lines
Test: TCF/LEF reporter assay
Type: cell-based
Settings: for TCF/LEF Reporter Inhibition at 10 μM: Table 2
Experimental: FIG. 2. […] FIG. 2 depicts exemplary data from TCF/LEF reporter assays. Y-axes illustrate luminescence, and X-axes illustrate concentrations of peptides. […] TCF/LEF Luciferase reporter HEK293 cell lines (BPS Bioscience) were treated with dilution series of FP0025c and FP00217c Isomer 2 for 18 hours. 300 ng/mL of Wnt3a (Peprotech) was added to the cells for the final 6 hours of incubation. Luciferase activity was measured using Bright-Glo Luciferase Assay (Promega) according to manufacturer's protocol.
In some embodiments, a provided assay is a TCF/LEF reporter assay. In some embodiments, in an exemplary such assay, TCF/LEF Luciferase reporter HEK293 cell lines (BPS Bioscience) were treated with dilution series of provided peptides for 18 hours. 300 ng/mL of Wnt3a (Peprotech) was added to the cells for the final 6 hours of incubation. Luciferase activity was measured using Bright-Glo Luciferase Assay (Promega) according to manufacturer's protocol. […] Applicant also notes that teachings of the present disclosure are not restricted to a particular mechanism of action of described agents.

SMILES | TCF/LEF Reporter Inhibition at 10 μM [%] | other results
CC[C@H](C)[C@@H]1NC(=O)[C@H](Cc2ccccn2)NC(=O)[C@H](C)NC(=O)[C@H](CC(=O)O)NC(=O)[C@H](CC(C)C)NC(=O)[C@H]([C@@H](C)CC)NC(=O)[C@](C)(NC(=O)[C@H](C)NC(C)=O)CCCCCCC=CCOC(=O)N2CC[C@@](C(=O)N[C@H](C(=O)N[C@H](C(=O)N[C@@H](Cc3c[nH]c4ccccc34)C(N)=O)C(C)C)C(C)C)(C2)NC1=O (single isomer, unassigned) [FP0562c Isomer 1, Ac-A-R8-I-L-D-A-2pyr-I-MB-V-V-W-NH2] | 22 | –
CC[C@H](C)[C@@H]1NC(=O)[C@H](Cc2ccccn2)NC(=O)[C@H](C)NC(=O)[C@H](CC(=O)O)NC(=O)[C@H](CC(C)C)NC(=O)[C@H]([C@@H](C)CC)NC(=O)[C@](C)(NC(=O)[C@H](C)NC(C)=O)CCCCCCC=CCOC(=O)N2CC[C@@](C(=O)N[C@H](C(=O)N[C@H](C(=O)N[C@@H](Cc3c[nH]c4ccccc34)C(N)=O)C(C)C)C(C)C)(C2)NC1=O (single isomer, unassigned) [FP0562c Isomer 2, Ac-A-R8-I-L-D-A-2pyr-I-MB-V-V-W-NH2] | 32 | –
CC[C@H](C)[C@@H]1NC(=O)[C@H](Cc2ccccn2)NC(=O)[C@H](C)NC(=O)[C@H](CC(=O)O)NC(=O)[C@H](CC(C)C)NC(=O)[C@H]([C@@H](C)CC)NC(=O)[C@](C)(NC(=O)[C@H](C)NC(C)=O)CCCCCCC=CCOC(=O)N2CC[C@@](C(=O)N[C@@H](Cc3c[nH]c4ccccc34)C(=O)N[C@H](C(=O)N[C@@H](Cc3c[nH]c4ccccc34)C(N)=O)C(C)C)(C2)NC1=O (single isomer, unassigned) [FP0563c Isomer 1, Ac-A-R8-I-L-D-A-2pyr-I-MB-W-V-W-NH2] | 34 | –
CC[C@H](C)[C@@H]1NC(=O)[C@H](Cc2ccccn2)NC(=O)[C@H](C)NC(=O)[C@H](CC(=O)O)NC(=O)[C@H](CC(C)C)NC(=O)[C@H]([C@@H](C)CC)NC(=O)[C@](C)(NC(=O)[C@H](C)NC(C)=O)CCCCCCC=CCOC(=O)N2CC[C@@](C(=O)N[C@@H](Cc3c[nH]c4ccccc34)C(=O)N[C@H](C(=O)N[C@@H](Cc3c[nH]c4ccccc34)C(N)=O)C(C)C)(C2)NC1=O (single isomer, unassigned) [FP0563c Isomer 2, Ac-A-R8-I-L-D-A-2pyr-I-MB-W-V-W-NH2] | 30 | –
CC[C@H](C)[C@@H]1NC(=O)[C@H](Cc2ccccn2)NC(=O)[C@H](C)NC(=O)[C@H](CC(=O)O)NC(=O)[C@H](CC(C)C)NC(=O)[C@H]([C@@H](C)CC)NC(=O)[C@](C)(NC(=O)[C@H](C)NC(C)=O)CCCCCCC=CCOC(=O)N2CC[C@@](C(=O)N[C@@H](Cc3ccc(O)cc3)C(=O)N[C@H](C(=O)N[C@@H](Cc3c[nH]c4ccccc34)C(N)=O)C(C)C)(C2)NC1=O (single isomer, unassigned) [FP0564c Isomer 1, Ac-A-R8-I-L-D-A-2pyr-I-MB-Y-V-W-NH2] | 46 | –
CC[C@H](C)[C@@H]1NC(=O)[C@H](Cc2c[nH]cn2)NC(=O)[C@H](C)NC(=O)[C@H](CC(=O)O)NC(=O)[C@H](CC(C)C)NC(=O)[C@H]([C@@H](C)CC)NC(=O)[C@](C)(NC(=O)[C@H](C)NC(C)=O)CCCCCCC=CCOC(=O)N2CC[C@@](C(=O)N[C@@H](CCCNC(=N)N)C(=O)N[C@H](C(=O)N[C@@H](Cc3c[nH]c4ccccc34)C(N)=O)C(C)C)(C2)NC1=O (single isomer, unassigned) [FPO217c, Ac-AR8ILDAHIMBRVW (SEQ ID NO: 280)] | – | IC50 (18 hours, Wnt3a 300 ng/mL for final 6 hours): 743 nM
CC[C@H](C)[C@@H]1NC(=O)[C@@]2(NC(=O)[C@H](C)NC(=O)[C@@H]3CCCN3C(C)=O)CCN(C2)C(=O)OCC=CCCCCCC[C@@](C)(C(=O)N[C@@H](CCCNC(=N)N)C(=O)N[C@H](C(=O)N[C@@H](Cc2c[nH]c3ccccc23)C(N)=O)C(C)C)NC(=O)[C@H](C(C)C)NC(=O)[C@H](Cc2c[nH]cn2)NC(=O)[C@H](C)NC(=O)[C@H](CC(=O)O)NC(=O)[C@H](CC(C)C)NC1=O [FP0005c, Ac-P-A-MC-I-L-D-A-H-V-S8-R-V-W-NH2] | 45 | –
CC[C@H](C)[C@@H]1NC(=O)[C@@]2(NC(=O)[C@H](C)NC(=O)[C@@H]3CCCN3C(C)=O)CCN(CC=CCCCCCC[C@@](C)(C(=O)N[C@@H](CCCNC(=N)N)C(=O)N[C@H](C(=O)N[C@@H](Cc3c[nH]c4ccccc34)C(N)=O)C(C)C)NC(=O)[C@H](C(C)C)NC(=O)[C@H](Cc3c[nH]cn3)NC(=O)[C@H](C)NC(=O)[C@H](CC(=O)O)NC(=O)[C@H](CC(C)C)NC1=O)C2 [FP0006a, Ac-P-A-MC-I-L-D-A-H-V-S8-R-V-W-NH2] (Ac-PA[X14]ILDAHV[S8]RVW-NH2; staple 3-10) | 10 | –
CC[C@H](C)[C@@H]1NC(=O)[C@@]2(NC(=O)[C@H](C)NC(=O)[C@@H]3CCCN3C(C)=O)CCN(C2)C(=O)OCC=CCCCCCC[C@@](C)(C(=O)N[C@@H](CCCNC(=N)N)C(=O)N[C@@H](Cc2c[nH]c3ccccc23)C(N)=O)NC(=O)[C@H](C(C)C)NC(=O)[C@H](Cc2c[nH]cn2)NC(=O)[C@H](C)NC(=O)[C@H](CC(=O)O)NC(=O)[C@H](CC(C)C)NC1=O [FP0007c, Ac-P-A-MC-I-L-D-A-H-V-S8-R-W-NH2] | 54 | –
CC[C@H](C)[C@@H]1NC(=O)[C@@]2(NC(=O)[C@H](C)NC(=O)[C@@H]3CCCN3C(C)=O)CCN(C2)C(=O)OCC=CCCCCCC[C@@](C)(C(=O)N[C@@H](CCCNC(=N)N)C(=O)N[C@H](C(=O)N[C@@H](Cc2c[nH]c3ccccc23)C(N)=O)C(C)C)NC(=O)[C@H](C(C)C)NC(=O)[C@H](Cc2c[nH]cn2)NC(=O)[C@H](C)NC(=O)[C@H](CC(=O)O)NC(=O)[C@H](C)NC1=O [FP0009c, Ac-P-A-MC-I-A-D-A-H-V-S8-R-V-W-NH2] | 54 | –
CC[C@H](C)[C@@H]1NC(=O)[C@](C)(NC(=O)[C@H](CCC(N)=O)NC(=O)[C@@H]2CCCN2C(C)=O)CCCCCCC=CCOC(=O)N2CC[C@@](C(=O)N[C@@H](CCCNC(=N)N)C(=O)N[C@H](C(=O)N[C@@H](CC(C)C)C(N)=O)C(C)C)(C2)NC(=O)[C@H](C(C)C)NC(=O)[C@H](Cc2c[nH]cn2)NC(=O)[C@H](C)NC(=O)[C@H](CC(=O)O)NC(=O)[C@H](CC(C)C)NC1=O [FP0011c, Ac-P-Q-R8-I-L-D-A-H-V-MB-R-V-L-NH2] | 34 | –
CC[C@H](C)[C@@H]1NC(=O)[C@](C)(NC(=O)[C@H](C)NC(=O)[C@@H]2CCCN2C(C)=O)CCCCCCC=CCOC(=O)N2CC[C@@](C(=O)N[C@@H](CCCNC(=N)N)C(=O)N[C@H](C(=O)N[C@@H](Cc3c[nH]c4ccccc34)C(N)=O)C(C)C)(C2)NC(=O)[C@H](C(C)C)NC(=O)[C@H](Cc2c[nH]cn2)NC(=O)[C@H](C)NC(=O)[C@H](CC(=O)O)NC(=O)[C@H](CC(C)C)NC1=O [FP0025c, Ac-P-A-R8-I-L-D-A-H-V-MB-R-V-W-NH2] | 65 | TCF/LEF Reporter Activity (FIG. 2, dilution series, 18 hours): Inhibition; inhibition of signal in beta-catenin luciferase reporter assay (at 10 μM): > 50%
CC[C@H](C)[C@@H]1NC(=O)[C@H](Cc2c[nH]cn2)NC(=O)[C@H](C)NC(=O)[C@H]([C@@H](C)O)NC(=O)[C@H](CC(C)C)NC(=O)[C@H]([C@@H](C)CC)NC(=O)[C@](C)(NC(=O)[C@H](C)NC(=O)[C@@H]2CCCN2C(C)=O)CCCCCCC=CCOC(=O)N2CC[C@@](C(=O)N[C@@H](CCCNC(=N)N)C(=O)N[C@H](C(=O)N[C@@H](Cc3c[nH]c4ccccc34)C(N)=O)C(C)C)(C2)NC1=O [FP0216c, Ac-P-A-R8-I-L-T-A-H-I-MB-R-V-W-NH2] | 37 | –

From patent US11198713B2, “Agents modulating beta-catenin functions and methods thereof” (FOG PHARMACEUTICALS, INC., priority 2017, dated 2021)
